# Data reported in paper PMC9911399, “Two distinct binding modes provide the RNA-binding protein RbFox with extraordinary sequence specificity”.
# Numbering of substitutions follows the chain as printed; changes in the protein carry UniProt numbers. This is one part of the list.
# B1: UUCGGGG (DNA:RNA)
# RNA: GGGAGACCGGAAUUCAGAUUGUCCUUCGGGGUUAAAUCCCGUCGUAGCCACCA
# DNA 1: CAATCTGAATTCCGGTCTCCC
# DNA 2: TGGTGGCTACGACGGGATT
# B2: UUAAAAU (DNA:RNA)
# RNA: B1 RNA with C27A, G28A, G29A, G30A, G31U
# DNA 1: CAATCTGAATTCCGGTCTCCC
# DNA 2: TGGTGGCTACGACGGGATT
# B3: AAGGUGC (DNA:RNA)
# RNA: B1 RNA with U25A, U26A, C27G, G29U, G31C
# DNA 1: CAATCTGAATTCCGGTCTCCC
# DNA 2: TGGTGGCTACGACGGGATT
# B4: AAAAAGU (DNA:RNA)
# RNA: B1 RNA with U25A, U26A, C27A, G28A, G29A, G31U
# DNA 1: CAATCTGAATTCCGGTCTCCC
# DNA 2: TGGTGGCTACGACGGGATT
# B5: AAACAGC (DNA:RNA)
# RNA: B1 RNA with U25A, U26A, C27A, G28C, G29A, G31C
# DNA 1: CAATCTGAATTCCGGTCTCCC
# DNA 2: TGGTGGCTACGACGGGATT
# B6: CUACUAC (DNA:RNA)
# RNA: B1 RNA with U25C, C27A, G28C, G29U, G30A, G31C
# DNA 1: CAATCTGAATTCCGGTCTCCC
# DNA 2: TGGTGGCTACGACGGGATT
# B7: CGGUGGA (DNA:RNA)
# RNA: B1 RNA with U25C, U26G, C27G, G28U, G31A
# DNA 1: CAATCTGAATTCCGGTCTCCC
# DNA 2: TGGTGGCTACGACGGGATT
# B8: AUACCUC (DNA:RNA)
# RNA: B1 RNA with U25A, C27A, G28C, G29C, G30U, G31C
# DNA 1: CAATCTGAATTCCGGTCTCCC
# DNA 2: TGGTGGCTACGACGGGATT
# B9: GAGAGAG (DNA:RNA)
# RNA: B1 RNA with U25G, U26A, C27G, G28A, G30A
# DNA 1: CAATCTGAATTCCGGTCTCCC
# DNA 2: TGGTGGCTACGACGGGATT
# B10: UCUUUCU (DNA:RNA)
# RNA: B1 RNA with U26C, C27U, G28U, G29U, G30C, G31U
# DNA 1: CAATCTGAATTCCGGTCTCCC
# DNA 2: TGGTGGCTACGACGGGATT
# B11: AGGCUCA (DNA:RNA)
# RNA: GGGAGACCGGAAUUCAGAUUGUCCAGGCUCAUUAAAUCCCGUCGUAGCCACCA
# DNA 1: CAATCTGAATTCCGGTCTCCC
# DNA 2: TGGTGGCTACGACGGGATT
# B12: AGAUCCU (DNA:RNA)
# RNA: B11 RNA with G27A, C28U, U29C, A31U
# DNA 1: CAATCTGAATTCCGGTCTCCC
# DNA 2: TGGTGGCTACGACGGGATT
# B13: UGGUUCA (DNA:RNA)
# RNA: B11 RNA with A25U, C28U
# DNA 1: CAATCTGAATTCCGGTCTCCC
# DNA 2: TGGTGGCTACGACGGGATT
# B14: CGACAGC (DNA:RNA)
# RNA: B11 RNA with A25C, G27A, U29A, C30G, A31C
# DNA 1: CAATCTGAATTCCGGTCTCCC
# DNA 2: TGGTGGCTACGACGGGATT
# B15: GGCGCUG (DNA:RNA)
# RNA: B1 RNA with U25G, U26G, G29C, G30U
# DNA 1: CAATCTGAATTCCGGTCTCCC
# DNA 2: TGGTGGCTACGACGGGATT
# B16: CAGAUAA (DNA:RNA)
# RNA: B11 RNA with A25C, G26A, C28A, C30A
# DNA 1: CAATCTGAATTCCGGTCTCCC
# DNA 2: TGGTGGCTACGACGGGATT
# B17: CGAUGAG (DNA:RNA)
# RNA: B1 RNA with U25C, U26G, C27A, G28U, G30A
# DNA 1: CAATCTGAATTCCGGTCTCCC
# DNA 2: TGGTGGCTACGACGGGATT
# B18: CCUCUAC (DNA:RNA)
# RNA: B11 RNA with A25C, G26C, G27U, C30A, A31C
# DNA 1: CAATCTGAATTCCGGTCTCCC
# DNA 2: TGGTGGCTACGACGGGATT
# B19: CAGGCAC (DNA:RNA)
# RNA: B11 RNA with A25C, G26A, C28G, U29C, C30A, A31C
# DNA 1: CAATCTGAATTCCGGTCTCCC
# DNA 2: TGGTGGCTACGACGGGATT
# B20: ACCUUCG (DNA:RNA)
# RNA: B11 RNA with G26C, G27C, C28U, A31G
# DNA 1: CAATCTGAATTCCGGTCTCCC
# DNA 2: TGGTGGCTACGACGGGATT
# B21: AUCACUG (DNA:RNA)
# RNA: B1 RNA with U25A, G28A, G29C, G30U
# DNA 1: CAATCTGAATTCCGGTCTCCC
# DNA 2: TGGTGGCTACGACGGGATT
# B22: UUUAUUG (DNA:RNA)
# RNA: B1 RNA with C27U, G28A, G29U, G30U
# DNA 1: CAATCTGAATTCCGGTCTCCC
# DNA 2: TGGTGGCTACGACGGGATT
# B23: UGCUGGA (DNA:RNA)
# RNA: B1 RNA with U26G, G28U, G31A
# DNA 1: CAATCTGAATTCCGGTCTCCC
# DNA 2: TGGTGGCTACGACGGGATT
# B24: ACCGGAA (DNA:RNA)
# RNA: B1 RNA with U25A, U26C, G30A, G31A
# DNA 1: CAATCTGAATTCCGGTCTCCC
# DNA 2: TGGTGGCTACGACGGGATT
# B25: UGAUUGG (DNA:RNA)
# RNA: B1 RNA with U26G, C27A, G28U, G29U
# DNA 1: CAATCTGAATTCCGGTCTCCC
# DNA 2: TGGTGGCTACGACGGGATT
# B26: CACCCUA (DNA:RNA)
# RNA: B11 RNA with A25C, G26A, G27C, U29C, C30U
# DNA 1: CAATCTGAATTCCGGTCTCCC
# DNA 2: TGGTGGCTACGACGGGATT
# B27: UUAAGAU (DNA:RNA)
# RNA: B1 RNA with C27A, G28A, G30A, G31U
# DNA 1: CAATCTGAATTCCGGTCTCCC
# DNA 2: TGGTGGCTACGACGGGATT
# B28: AUCACAG (DNA:RNA)
# RNA: B1 RNA with U25A, G28A, G29C, G30A
# DNA 1: CAATCTGAATTCCGGTCTCCC
# DNA 2: TGGTGGCTACGACGGGATT
# B29: CAGCUAU (DNA:RNA)
# RNA: B11 RNA with A25C, G26A, C30A, A31U
# DNA 1: CAATCTGAATTCCGGTCTCCC
# DNA 2: TGGTGGCTACGACGGGATT
# B30: AGCGUUU (DNA:RNA)
# RNA: B11 RNA with G27C, C28G, C30U, A31U
# DNA 1: CAATCTGAATTCCGGTCTCCC
# DNA 2: TGGTGGCTACGACGGGATT
# B31: UAAGACG (DNA:RNA)
# RNA: B1 RNA with U26A, C27A, G29A, G30C
# DNA 1: CAATCTGAATTCCGGTCTCCC
# DNA 2: TGGTGGCTACGACGGGATT
# Molecular target: T1, RBFOX1 RRM (Homo sapiens, UniProt Q9NWB1 109-208)
# T1 sequence: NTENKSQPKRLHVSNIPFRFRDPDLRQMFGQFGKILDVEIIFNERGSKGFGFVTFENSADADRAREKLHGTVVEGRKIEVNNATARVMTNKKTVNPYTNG
# Assay: EMSA; HiTS-Eq, 1 nM pool, 10 min; buffer printed only for the single-RNA assays: 10 mM Tris pH 7.5, 150 mM NaCl, 3.4 mM EDTA, 0.001% NP-40, 30 C
# Conditions: tags: His6 N-terminal (pET28a); label: 5' 32P
# Procedure, shortened: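 Purified wild-type or mutant RbFox RRM at increasing concentrations was equilibrated with 1 nM of 5′-radiolabelled RNA carrying 7 randomized nucleotides for 10 min in 50 µL. Unbound RNA was separated by 8% native PAGE and sequenced. Relative association constants came from read-count changes of each RNA species compared with the control reaction, normalised to the cognate motif.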
row,Binder,binding signal
1,B1,0.00429 KA relative to UGCAUGU
2,B2,0.00292 KA relative to UGCAUGU
3,B3,0.0145 KA relative to UGCAUGU
4,B4,0.000744 KA relative to UGCAUGU
5,B5,0.00137 KA relative to UGCAUGU
6,B6,0.00199 KA relative to UGCAUGU
7,B7,0.00825 KA relative to UGCAUGU
8,B8,0.000578 KA relative to UGCAUGU
9,B9,0.0147 KA relative to UGCAUGU
10,B10,0.0113 KA relative to UGCAUGU
11,B11,0.0101 KA relative to UGCAUGU
12,B12,0.00532 KA relative to UGCAUGU
13,B13,0.0134 KA relative to UGCAUGU
14,B14,0.0101 KA relative to UGCAUGU
15,B15,0.0174 KA relative to UGCAUGU
16,B16,0.000443 KA relative to UGCAUGU

row,Binder,binding signal
1,B17,0.0186 KA relative to UGCAUGU
2,B18,0.00294 KA relative to UGCAUGU
3,B19,0.0109 KA relative to UGCAUGU
4,B20,0.00839 KA relative to UGCAUGU
5,B21,0.00284 KA relative to UGCAUGU
6,B22,0.0179 KA relative to UGCAUGU
7,B23,0.0106 KA relative to UGCAUGU
8,B24,0.00123 KA relative to UGCAUGU
9,B25,0.0223 KA relative to UGCAUGU
10,B26,0.000228 KA relative to UGCAUGU
11,B27,0.0109 KA relative to UGCAUGU
12,B28,0.0025 KA relative to UGCAUGU
13,B29,0.00303 KA relative to UGCAUGU
14,B30,0.00998 KA relative to UGCAUGU
15,B31,0.00786 KA relative to UGCAUGU
